Reference: the RNAGym collection of RNA variant scans (doi:10.7554/elife.90254)
The source gives no read counts; variants with many changes may rest on few reads.

B1: LINE1-mini (parent)
chain: GGCAGAGCUCAACACAGCGUGGCAAAGUGGCUGUGGCUAGACUGCC

Variants of: B1
Test: self-cleavage, relative activity (ratio to wild type); higher = more cleavage; in vitro, sequencing; the parent is a self-cleaving ribozyme

| Variant | self-cleavage |
| --- | --- |
| GGCAGAGCUCAACAUAGCGAGGCAAAGCGGCUAUGGCUUGACUGCC [C15U U20A U28C G33A A39U] | 2.81 |
| GGCAGAGCUCAACACCGCGUGGCAAUGUGGCUAUGGUUAGACUGAC [A16C A26U G33A C37U C45A] | 0.03 |
| GGCAGAGCUCAACAUAGCGAGGCAAAGUGGCUUUGGCUUUACUGCC [C15U U20A G33U A39U G40U] | 0.11 |
| GGCAGAGCUCAACACCGCGUGGCCAAGUGGCUGUGGCUAGACUUCU [A16C A24C G44U C46U] | 0.11 |
| GGCAGAGCUCAACACCGCGUGGCUAAGUGGCUGUGGCUCGACUGCC [A16C A24U A39C] | 0.04 |
| GGCAGAGCUCAACACCGCGUGGCAAAGUGGCUGUGGCUAGACUGGU [A16C C45G C46U] | 0.15 |
| GGCAGAGCUCAACACCGCGUGGCACAGAGUCUGUGGCUAGACCGUC [A16C A25C U28A G30U U43C C45U] | 0.04 |
| GGCAGAGCUCAACAUAGCGUGGCAAAGGGGCUGUGGCUACCCUGCC [C15U U28G G40C A41C] | 0.02 |
| GGCAGAGCUCAACACCGCGUGGCAAAGUGGCUGUGGCUAGAAUGCA [A16C C42A C46A] | 0.13 |
| GGCAGAGCUCAACACCGCGUGGCUAAGUGGCAGUGGCUAGACUGCC [A16C A24U U32A] | 0.06 |
| GGCAGAGCUCAACACCGUGUGGCAAAGUGGGUGACGCUAGAAUGCC [A16C C18U C31G U34A G35C C42A] | 0.02 |
| GGCAGAGCUCAACACCGGGUGGCAAAGUGGCUGUGGCUAAACUGCC [A16C C18G G40A] | 0.03 |
| GGCAGAGCUCAACACCGCAUGGCAAAGUGGCUGUGGCUUGACUGCC [A16C G19A A39U] | 0.03 |
| GGCAGAGCUCAACACCGCGUAGAAAAGUGGCUGUGGCUAGACUGCC [A16C G21A C23A] | 0.06 |
| GGCAGAGCUCAACACCGCGUGGUAAAGUGGCUGGGGCUAGACUGCC [A16C C23U U34G] | 0 |
| GGCAGAGCUCAACACCUCGUGGCAAAGUGGCUGUGGCUAGAGUGUC [A16C G17U C42G C45U] | 0.02 |
| GGCAGAGCUCAACACCGCCUGGCAAAGUGGCUGUGGCUAGAUUGCC [A16C G19C C42U] | 0.04 |
| GGCAGAGCUCAACACCGCAUGGCAAUGUGGCUGUGGCUAGACUGCC [A16C G19A A26U] | 0.02 |
| GGCAGAGCUCAACAUAGCGCGGCACAGUGGCUGUGGCUAGACUGCC [C15U U20C A25C] | 0.25 |

| Variant | self-cleavage |
| --- | --- |
| GGCAGAGCUCAACACCGAGUGGCAAAGUGGCUGUGUCGAGACGACC [A16C C18A G36U U38G U43G G44A] | 0.01 |
| GGCAGAGCUCAACACCGCGUGGCACAGAGGCUGUUGCUAGACUGCC [A16C A25C U28A G35U] | 0 |
| GGCAGAGCUCAACACCGCGUGGCAAAGUGGCUGUGGCUGGGCUGCC [A16C A39G A41G] | 0 |
| GGCAGAGCUCAACAUAGCGGGGCAAAGUGGCUGUGGCUAGUCUGCC [C15U U20G A41U] | 0.29 |
| GGCAGAGCUCAACAUAGCGAGGCAAAGUGGCUGUGGCUACACUCCC [C15U U20A G40C G44C] | 0.06 |
| GGCAGAGCUCAACAUAGCGUGGCAAAGAGGCUGUGACUAGACUGCC [C15U U28A G36A] | 0.13 |
| GGCAGAGCUCAACACCGUGUGGCAAAGUGGCUCUGGCUAGACUGCC [A16C C18U G33C] | 0.02 |
| GGCAGAGCUCAACACCGCGUGGCAAAGUGGCUGUGGGUAAACUGCC [A16C C37G G40A] | 0.08 |
| GGCAGAGCUCAACACCGCGUGGCAAAGUGGUUGUGGCUAGAUUGCC [A16C C31U C42U] | 0 |
| GGCAGAGCUCAACACCGCGUGGCAAAGUGGUUGUGGGUAGACUGCC [A16C C31U C37G] | 0.03 |
| GGCAGAGCUCAACACCGCGUCGCAAAGAGGCUGUGGCUAGACUGUC [A16C G21C U28A C45U] | 0.17 |
| GGCAGAGCUCAACAUAGCGGGGAAAAGAGGCUGUGGCUAGAAUGCC [C15U U20G C23A U28A C42A] | 0.02 |
| GGCAGAGCUCAACACCGCAUGGCACAGUGGCUGCGGCUAGACUGCC [A16C G19A A25C U34C] | 0.04 |
| GGCAGAGCUCAACACCCCGUGCCAAACUCGCUGUGGCGAGACUGCC [A16C G17C G22C G27C G29C U38G] | 0.02 |
| GGCAGAGCUCAACACCGCGUGGCAAUGUGGCUGUGACUAGACUGCC [A16C A26U G36A] | 0.14 |
| GGCAGAGCUCAACACCGCUUGGCAAAGUGGCUGUGGCUAGACUGCG [A16C G19U C46G] | 0.07 |
| GGCAGAGCUCAACACCGGGUGGCAAAGUGGCUGUGGUUAGACUGCG [A16C C18G C37U C46G] | 0.07 |
| GGCAGAGCUCAACACCGCUUGGCCAGGUGGCUGUGGCUAGACUUCC [A16C G19U A24C A26G G44U] | 0.05 |
| GGCAGAGCUCAACACCGAGAGGCAAAGUGGCUGUGGCUAAACUGCC [A16C C18A U20A G40A] | 0 |

| Variant | self-cleavage |
| --- | --- |
| GGCAGAGCUCAACACCGCAUGGCAAAGUGGCUGUGGCUAGGCUGCC [A16C G19A A41G] | 0 |
| GGCAGAGCUCAACAUAGCGGGGCAAAGCAGCUGUGGCGAGAAUGCC [C15U U20G U28C G29A U38G C42A] | 0.05 |
| GGCAGAGCUCAACACCGCGUAGCAAAGUGGCUGUGGCUAGACUGCU [A16C G21A C46U] | 0.06 |
| GGCAGAGCUCAACACCGCGUGGCAAAGUGGCUGUGGAUACACUGCC [A16C C37A G40C] | 0.03 |
| GGCAGAGCUCAACACCGCGUGGCUAAGUGGCCGUGACUAGACUGCC [A16C A24U U32C G36A] | 0.01 |
| GGCAGAGCUCAACACCGCGUGGCAAUGUGGUUGUGGCUAGACUGCC [A16C A26U C31U] | 0.01 |
| GGCAGAGCUCAACAUAGCGUGGCAAAGUGGCUGUGGCUAGACCGUC [C15U U43C C45U] | 0.13 |
| GGCAGAGCUCAACACCGCCUGGCAAAGUGGCUGAGGCUAGACUGCC [A16C G19C U34A] | 0 |
| GGCAGAGCUCAACACCGCGUGGCAAAGUGGCUGUGGCUUGACUACU [A16C A39U G44A C46U] | 0.01 |
| GGCAGAGCUCAACACCGCGUGGCAAAGUGGAUGUGGCUAAACUGCC [A16C C31A G40A] | 0.01 |
| GGCAGAGCUCAACAUAGCGAGGCAAAGUGGCUGUUGCGAGACUGAC [C15U U20A G35U U38G C45A] | 0 |
| GGCAGAGCUCAACACCACAUGGCAAAGUGGCUGAGGCUCGACUGCA [A16C G17A G19A U34A A39C C46A] | 0.02 |
| GGCAGAGCUCAACAUAGCGCGGCAAAGUGGCUCUGGCUAGACUGCC [C15U U20C G33C] | 0.11 |
| GGCAGAGCUCAACACCGCGUGGCAGAGACGAUUUGGCUAGAGUGCC [A16C A25G U28A G29C C31A G33U C42G] | 0.01 |
| GGCAGAGCUCAACACCUCGUGGCAAAGUGGCAGUCGUUAGACUGCC [A16C G17U U32A G35C C37U] | 0.23 |
| GGCAGAGCUCAACACCGAGUGGUGAAGUGGCUGUGGCUUGACUGAC [A16C C18A C23U A24G A39U C45A] | 0 |
| GGCAGAGCUCAACACCGAGUGGUAUAGUGGGUGUGGCUAGACUGCC [A16C C18A C23U A25U C31G] | 0.05 |
| GGCAGAGCUCAACAUAGCGGGGCAAAGUGGCUCUGGCUAGACCGCC [C15U U20G G33C U43C] | 0.06 |
